Experimental data as given in PubChem BioAssay AID894 (National Center for Advancing Translational Sciences (NCATS), 2007).
Values joined by “and” are separate entries in the source; they are usually repeats but may differ in a detail not shown here. Identical values can stand only once. Screen size: about 150,000 compounds; about 6,500 (4.3%) were called active. The shares of active, inactive and inconclusive entries below differ from those in the screen. The call rests on the fitted dose curve; in most records, active means well fitted inhibition curve with a large enough effect (not every such curve was filed as active); inconclusive means small, poorly fitted or top-dose-only effect, or another doubt; inactive means no such curve, though single readings can be large or run the other way. Potencies beside an inconclusive call are fits to weak or partial responses and may not hold up.

biological target: 15-hydroxyprostaglandin dehydrogenase [NAD(+)] (Homo sapiens) (UniProt P15428); experiment: qHTS Assay for Inhibitors of HPGD (15-Hydroxyprostaglandin Dehydrogenase); settings: purified HPGD, NADH fluorescence kinetic, PGE2 substrate; activity change, negative = inhibition: stronger effect = lower value
Chain of UniProt P15428 (P15428 whole entry, looked up): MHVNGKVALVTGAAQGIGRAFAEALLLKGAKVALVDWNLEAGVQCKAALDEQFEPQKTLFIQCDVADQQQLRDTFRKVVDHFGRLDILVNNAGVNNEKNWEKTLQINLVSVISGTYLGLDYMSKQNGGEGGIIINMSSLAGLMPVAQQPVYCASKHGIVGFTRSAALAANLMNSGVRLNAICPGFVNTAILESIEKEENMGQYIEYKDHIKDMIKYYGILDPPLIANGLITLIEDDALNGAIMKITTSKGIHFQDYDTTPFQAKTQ
In short: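 20 nM HPGD preincubated 15 min at room temperature with compound in 50 mM Tris-HCl pH 8, 0.01% Tween 20. Started with 1 mM NAD+ and 30 uM prostaglandin E2; NADH fluorescence (360/450 nm) read 5 times over 30-s intervals, last minus first.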
On the % scale 0 is the no-effect control and ±100 the full control effect; potency means the concentration at half of the fitted maximal effect; tags describe the fitted curve by direction and shape.

SMILES | Potency | activity change, negative = inhibition
S=c1[nH]nc(-c2ccccc2)n1/N=C/C=C/c1ccco1 | active: 11.2 µM | –
CCOC(=O)C1Cn2c(nc3c(c2=O)C2(CCCC2)Cc2ccccc2-3)S1 (configuration not stated) | inconclusive: 28.2 µM [inhibitor, single point] | –
CC1(C)CC(=O)C(C=N)=C(O)C1 | – | inactive: -0.361%
COc1ccccc1CNC(=O)CCn1c(=O)[nH]c2ccsc2c1=O | – | inactive: -6.28%
Cc1ccc(C)c(-n2c3nc(=O)[nH]c(=O)c-3cc3cc([N+](=O)[O-])ccc32)c1 | inconclusive: 28.2 µM [inhibitor, partial curve] | –
Cc1sc2nc(SCC(=O)N3CCCC3)[nH]c(=O)c2c1C | active: 17.8 µM | –
CC(=O)N1CCN(c2nc(-c3ccco3)c3c(c2C#N)CC(C)(C)SC3)CC1 | inconclusive: 31.6 µM [inhibitor, partial curve] | –
O=c1[nH]c(-c2ccccc2)c(-c2ccccc2)[nH]1 | inconclusive: 10 µM [inhibitor, partial curve] | –
O=C(CSc1n[nH]c(-c2ccccc2O)n1)N1CCCc2ccccc21 | active: 10 µM | –
Cn1ncc(Br)c1C(=O)NC(=S)N1CCN(c2ccccn2)CC1 | – | inactive: -10.2%
CCOc1ccc2[nH]c(=O)c(CN(Cc3ccc(F)cc3)C(=O)N3CCCC3)cc2c1 | inconclusive: 20 µM [inhibitor, single point] | –
COc1ccc(COc2cc(-c3cccc(OC)c3)nc3ccc(NC(=O)c4ccc(OC)cc4)cc23)cc1 | inconclusive: 25.1 µM [inhibitor, partial curve] and inconclusive: 31.6 µM [inhibitor, partial curve] | –
Cc1cnc(CNc2ncnc3ccc(-c4ccccc4CN(C)C)cc23)cn1 | inconclusive: 20 µM [inhibitor, partial curve] | –
c1ccc(Cc2nnc3sc(-c4ccncc4)nn23)cc1 | active: 11.2 µM | –
COc1ccc(-c2cc(-c3n[nH]c(=S)n3-c3cc(OC)ccc3OC)[nH]n2)cc1 | inconclusive: 28.2 µM [inhibitor, partial curve] | –
O=C1C2C3C=CC(C3=C(c3ccccc3)c3ccccc3)C2C(=O)N1Cc1ccccc1 (configuration not stated) | active: 39.8 µM | –
CCOC(=O)N1CCN(C(=S)NC)CC1 | – | inactive: -11.5%
Cn1c(C(=O)NCCc2ccsc2)cc2c(=O)n(C)c3ccccc3c21 | inconclusive: 25.1 µM [inhibitor, single point] | –
C/C(=N/NC(=O)c1ccc(Br)o1)C(C)C | – | inactive: -7.67%
O=C(c1ccc(N2C(=O)C3CC=C(Cl)CC3C2=O)cc1)N1CCCCC1 (configuration not stated) | active: 0.501 µM | –
CCC(Sc1nc(C)cc(C)n1)C(=O)NC1=NN=C(c2ccc(C)cc2)CS1 (configuration not stated) | – | inactive: -9.56%
CCCc1cc(=O)n2c([nH]c3ccccc32)c1C#N | inconclusive: 31.6 µM [inhibitor, partial curve] | –
CCOc1cc(/C=N/Nc2nc(-c3cccc(S(=O)(=O)N4CCCC4)c3)cs2)ccc1O | inconclusive: 22.4 µM [inhibitor, partial curve] | –
O=C(Nc1nnc(CC(c2ccccc2)c2ccccc2)s1)c1ccco1 | – | inactive: -3.3%
Cc1cc(C)n(CC(O)Cn2ccc3ccccc32)n1 (configuration not stated) | inconclusive: 15.8 µM [inhibitor, partial curve] | –
Cc1cc(C)nc(NC(=O)c2ccc([N+](=O)[O-])o2)n1 | – | inactive: 11.8%

SMILES | Potency | activity change, negative = inhibition
COc1ccc(-c2nc3cnc(N4CCNCC4)nc3n(CCC#N)c2=O)cc1 | – | inactive: -28.1%
Cc1cc(C)n(-c2nc(Nc3ccccc3)nc(-n3nc(C)cc3C)n2)n1 | – | inactive: -8.02%
COc1ccc(OC)c(/C=C/C(=O)OCC(=O)Nc2cccc(C(C)=O)c2)c1 | inconclusive: 28.2 µM [inhibitor, partial curve] | –
Cc1ccc(-c2nc3ccccc3[nH]2)cc1NC(=O)c1sc2cc(Cl)ccc2c1Cl | inconclusive: 20 µM [inhibitor, partial curve] | –
CCCSC1=C(C#N)C(c2ccc(Cl)cc2Cl)CC(=O)N1 (configuration not stated) | active: 31.6 µM | –
Cc1nn(-c2nnc(NCc3ccccc3)nn2)c(C)c1Br | active: 14.1 µM | –
C1=C(CCNc2ncnc3c2[nH]c2ccccc23)CCCC1 | – | inactive: -25.1%
CCCNC(=O)c1c(N)n(-c2cc(OC)cc(OC)c2)c2nc3ccccc3nc12 | inconclusive: 2.82 µM [inhibitor, full curve, poor fit] | –
COc1cccc(-n2c(SCC(=O)NC3CCCC3)nnc2-c2ccco2)c1 | inconclusive: 31.6 µM [inhibitor, single point] | –
Cc1ccc(S(=O)(=O)NCC(=O)N(CC(=O)NCC2CCCO2)Cc2ccccc2)cc1 (configuration not stated) | – | inactive: -0.514%
O=C(CCCn1c(=S)[nH]c2ccccc2c1=O)NC1CCCCC1 | active: 20 µM | –
C=CCCC(=O)Nc1nc(C)c(-c2csc(Nc3cc(Cl)ccc3OC)n2)s1 | inconclusive: 35.5 µM [inhibitor, partial curve] | –
CC(=O)N1CCC(Nc2ccc(C)cc2)CC1 | – | inactive: -12.1%
Cc1cc(NS(=O)(=O)c2ccc(Nc3nc(-c4ccc(O)cc4)cs3)cc2)no1 | active: 20 µM | –
COC(=O)c1ccc2c(=O)n(CC3CCCO3)c(SCC(=O)Nc3ccccc3Cl)nc2c1 (configuration not stated) | – | inactive: -8.69%
O=C(Nc1ccc(-c2nc3ccccc3[nH]2)cc1)c1ccco1 | inconclusive: 39.8 µM [inhibitor, single point] | –
COc1ccc(-n2nnc3c(=O)n(Cc4cccc(C)c4)cnc32)cc1 | active: 15.8 µM | –
O=C(CCN1CCc2ccccc2CC1)c1ccc2c(c1)OCCO2 | – | inactive: -20.7%
COCCn1c(SCC(=O)N2CCC(C)CC2)nc2ccccc2c1=O | – | inactive: -5.07%
CC(C)c1nnc(NC(=O)CSc2nc3ccccc3s2)s1 | – | inactive: -21.9%
O=c1c2cnn(-c3ccccc3)c2nc(-c2ccco2)n1-c1ccccc1 | inconclusive: 31.6 µM [inhibitor, partial curve] | –
CC(=O)NN1C(=O)/C(=C\c2ccc(Br)o2)SC1=S | inconclusive: 20 µM [inhibitor, single point] | –
Cc1cccc(NC(=S)NCCO)c1C | – | inactive: -6.87%
O=C(COC(=O)c1ccccc1NC(=O)C1CC1)c1ccc2c(c1)OCCO2 | – | inactive: -20.4%
CCOc1ccc(C(=O)N2CCCC2)cc1 | active: 7.94 µM | –
COc1cc(SC)ccc1C(=O)Nc1ccon1 | – | inactive: -23.3%

SMILES | Potency | activity change, negative = inhibition
Cc1[nH][nH]c(=O)c1C(c1ccc(-c2ccc(Cl)cc2)o1)c1c(C)[nH][nH]c1=O | inconclusive: 25.1 µM [inhibitor, single point] | –
COC(=O)/C=C1\S/C(=N/N=C/c2ccccc2)NC1=O | active: 25.1 µM | –
CCN(CC)C(=O)c1scc2c1OCCO2 | – | inactive: -16.3%
CCc1nc(NCCc2ccccn2)c2nnn(Cc3ccccc3F)c2n1 | – | inactive: -8.63%
CC1(C)Cc2c(C#N)c(NCc3ccco3)nc(-c3ccco3)c2CO1 | inconclusive: 25.1 µM [inhibitor, partial curve, poor fit] | –
Cn1c(-c2sc3ccccc3c2Cl)n[nH]c1=S | active: 20 µM | –
CCc1nn2c(N3CCOCC3)cc(C)nc2c1-c1ccc(F)cc1 | inconclusive: 35.5 µM [inhibitor, partial curve] | –
O=C1/C(=C/Nc2ccc3c(c2)OCO3)CCc2ccccc21 | active: 25.1 µM | –
O=C(CSc1ccc(Cl)cc1)Nc1cccc(-c2nc3ccccc3[nH]2)c1 | inconclusive: 17.8 µM [inhibitor, partial curve] | –
O=C(Nc1ccc2oc(-c3ccc(Cl)c(Cl)c3)nc2c1)c1ncn[nH]1 | inconclusive: 28.2 µM [inhibitor, partial curve] | –
CCOc1ccc(N/C(=C(/C(Cl)=C(Cl)Cl)[N+](=O)[O-])n2cncn2)cc1 | inconclusive: 22.4 µM [inhibitor, partial curve] | –
O=C(CN1C(=O)C2C3C=CC(C4CC34)C2C1=O)OCC(=O)c1ccccc1 (configuration not stated) | inconclusive: 39.8 µM [inhibitor, partial curve] | –
CCc1cccc(CC)c1NC(=O)CO/N=C(\C)c1cccs1 | active: 0.631 µM | –
CCOC(=O)COc1cc(OCC(=O)OCC)c2c(=O)cc(-c3ccccc3)oc2c1 | inconclusive: 31.6 µM [inhibitor, partial curve, poor fit] | –
CCOC(=O)C(C)Oc1ccc2c(-c3cccc([N+](=O)[O-])c3)cc(=O)oc2c1 (configuration not stated) | active: 35.5 µM | –
CCn1c(N)c(C(=O)NCCCOC)sc1=S | active: 14.1 µM | –
O=C(O)Cc1ccc(NC(=S)NCc2ccco2)cc1 | – | inactive: -12.1%
N#Cc1cc2c(nc1SCc1ccccc1)CCCCC2 | – | inactive: -7.53%
CC(C)Oc1cccc(C(=O)NC(=S)Nc2ccc(Cl)c(C(=O)O)c2)c1 | – | inactive: -11.9%
Cc1nc2ccc3nc(NC(=O)c4ccc5c(c4)OCCO5)sc3c2s1 | – | inactive: 18.8%
COc1cc(C(=O)Nc2nc(-c3cc(C)ccc3C)c(C)s2)ccc1OCC(=O)Nc1ccc(F)cc1 | inconclusive: 28.2 µM [inhibitor, partial curve] | –
CCc1ccc(OCc2nc(-c3ccccn3)no2)c(Br)c1 | active: 28.2 µM | –
O=c1c(F)cn(C2CCCO2)c(=O)n1Cc1c(Cl)cccc1Cl (configuration not stated) | active: 15.8 µM | –
S=C(NC1CCCCC1)c1ccc2c(c1)OCO2 | active: 20 µM | –
CCC(=O)c1ccc(N2CCN(C(=O)Cc3ccccc3)CC2)c(F)c1 | – | inactive: -26.6%
